{"source": "PubChem BioAssay AID1460", "about": "(National Center for Advancing Translational Sciences (NCATS), 2008)", "note": "Among all 270,000 compounds or so, about 5,800 (2.1%) were called active. The inconclusive results got no clear call from the source; some entries with a clear call stand among them for comparison. Calls follow the shape of the dose curve; as a rule, active = well fitted inhibition curve with a large enough effect; inconclusive = small, poorly fitted or top-dose-only effect; inactive = flat fitted curve, though single readings scatter. A potency beside an inconclusive call is a rough fit, not a confirmed value. % is scaled to controls: 0 for no effect and ±100 for the full control effect; potency is read from the fitted curve at half-maximal effect; tags tell the direction and shape of the fitted curve."}
{"target": "Microtubule-associated protein tau (Homo sapiens) (UniProt P10636)", "sequence (P10636 whole entry, looked up, the tested form may be a part)": "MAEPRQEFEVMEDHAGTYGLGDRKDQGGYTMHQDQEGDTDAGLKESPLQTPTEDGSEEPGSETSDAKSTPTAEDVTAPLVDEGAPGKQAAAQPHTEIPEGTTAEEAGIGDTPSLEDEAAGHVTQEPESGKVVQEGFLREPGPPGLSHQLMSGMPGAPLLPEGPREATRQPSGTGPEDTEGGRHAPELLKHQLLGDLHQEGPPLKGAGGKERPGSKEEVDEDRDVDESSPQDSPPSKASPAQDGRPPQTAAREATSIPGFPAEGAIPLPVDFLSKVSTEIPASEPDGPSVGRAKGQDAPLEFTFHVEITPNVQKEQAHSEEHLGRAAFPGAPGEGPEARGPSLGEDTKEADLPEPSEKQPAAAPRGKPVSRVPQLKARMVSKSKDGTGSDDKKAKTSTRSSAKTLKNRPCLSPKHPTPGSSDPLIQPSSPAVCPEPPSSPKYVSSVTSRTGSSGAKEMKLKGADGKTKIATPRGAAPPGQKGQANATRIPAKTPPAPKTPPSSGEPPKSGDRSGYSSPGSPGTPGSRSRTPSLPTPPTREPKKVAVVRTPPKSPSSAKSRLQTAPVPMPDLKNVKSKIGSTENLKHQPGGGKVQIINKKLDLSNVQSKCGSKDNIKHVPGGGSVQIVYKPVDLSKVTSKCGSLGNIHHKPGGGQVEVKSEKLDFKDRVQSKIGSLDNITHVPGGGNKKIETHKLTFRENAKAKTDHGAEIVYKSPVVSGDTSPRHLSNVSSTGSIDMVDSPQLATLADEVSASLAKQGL", "assay": "qHTS for Inhibitors of Tau Fibril Formation, Thioflavin T Binding; also: nearly all actives have a fitted effect of over 55% in size", "conditions": "recombinant tau K18 P301L (four-repeat tau fragment), heparin-induced fibrillization, ThT fluorescence; series mostly up to 57.4 µM; activity, negative = inhibition: at the top concentration", "procedure,_shortened": "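Heparin-induced fibrillization of the P301L-mutant K18 repeat-domain fragment of human tau was followed by ThT binding in quantitative high-throughput format.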"}
{"compound": "COc1cccc(CNc2ccc(F)c(Cl)c2)c1", "Potency": "inconclusive: 28.2 µM [inhibitor, partial curve]"}
{"compound": "Cc1nc2nc(CNC(=O)c3cccc(F)c3)nn2c(C)c1CCC(=O)Nc1cccc(Cl)c1", "activity, negative = inhibition": "inactive: 0.521%"}
{"compound": "CNNC(=S)NC1CC2CC1C1C=CCC21", "note": "(stereo not given)", "activity, negative = inhibition": "inactive: -13.7%"}
{"compound": "Cc1nn(C(C)C(=O)Nc2ccccc2C(F)(F)F)c(=O)c2c1sc1ccccc12", "note": "(stereo not given)", "Potency": "inconclusive: 20 µM [activator, partial curve, poor fit]"}
{"compound": "Cc1ccc(NC(=O)c2ccc(NCCCN3CCOCC3)c([N+](=O)[O-])c2)cc1Cl", "Potency": "active: 12.6 µM"}
{"compound": "COc1cc(/C=C2\\NC(=S)N(C)C2=O)ccc1O", "Potency": "inconclusive: 20 µM [inhibitor, partial curve]"}
{"compound": "O=C(c1ccc(F)cc1)n1nc(-c2cccnc2)nc1NCc1ccccc1", "Potency": "inconclusive: 17.8 µM [inhibitor, single point]"}
{"compound": "CCSc1nc2ccccc2c(OCc2ccccc2Cl)c1C(=O)OC", "Potency": "inconclusive: 15.8 µM [inhibitor, partial curve, poor fit]"}
{"compound": "CN1Cc2c(N3CCOCC3)nc3sc(C(=O)c4ccccc4)c(N)c3c2CC1(C)C", "Potency": "inconclusive: 31.6 µM [inhibitor, partial curve]"}
{"compound": "COc1ccc(NC(=O)c2nc(-c3ccc(C)cc3)n3c2CCCCC3)cc1", "activity, negative = inhibition": "inactive: -13.8%"}
{"compound": "Fc1ccc(Nc2nc3ccccc3n3cnnc23)c(F)c1", "activity, negative = inhibition": "inactive: -9%"}
{"compound": "CC(=Nc1ccc(C)cc1C)c1sc2ccccc2c1O", "Potency": "inconclusive: 12.6 µM [inhibitor, partial curve]"}
{"compound": "CC(=O)Nc1ccccc1-c1nc2ccccc2nc1OCC(=O)c1ccc(Br)cc1", "Potency": "inconclusive: 5.62 µM [inhibitor, partial curve]"}
{"compound": "O=C(CN1C(=O)C2CC=CCC2C1=O)NCc1cccs1", "note": "(stereo not given)", "Potency": "inconclusive: 20 µM [inhibitor, partial curve, poor fit]"}
{"compound": "CCCOc1ccc(N2C(=O)CC(SCCN)C2=O)cc1", "note": "(stereo not given)", "activity, negative = inhibition": "inactive: 1.89%"}
{"compound": "COc1ccc(CCNC(=O)C(C)n2nc(C)c3sc4ccccc4c3c2=O)c(OC)c1", "note": "(stereo not given)", "Potency": "inconclusive: 12.6 µM [activator, partial curve]"}
{"compound": "O=C(Nc1nc2ccccc2s1)c1cc(-c2ccco2)nc2ccccc12", "Potency": "inconclusive: 14.1 µM [inhibitor, partial curve]"}
{"compound": "O=C(COC(=O)C1(c2ccc(F)cc2)CCCC1)Nc1ncc(C(F)(F)F)cc1Cl", "Potency": "inconclusive: 28.2 µM [inhibitor, single point]"}
{"compound": "CCCn1c(SCC(=O)Nc2nc(-c3ccc(OC)cc3)cs2)nc2c1c(=O)n(C)c(=O)n2C", "activity, negative = inhibition": "inactive: 6.59%"}
{"compound": "COc1cc(N/C=C2\\CC(=O)NC(C)=C2C#N)cc(OC)c1OC", "Potency": "inconclusive: 12.6 µM [inhibitor, partial curve]"}
